PMC11831438
Substitutions are numbered along the chain they refer to. Names and notes keep the numbering of the source. Results are given in words; binding and its absence hold for the method and conditions named. In cells and extracts the contact can be indirect. Some entries that bind do so weakly or less than the wild type. For some of these results: Where a sequence is shown, tags or fusion partners need not be part of it. Values belong to the binder of their own block, whether it stands above or below them.

Columns and labels:
[1] = target: T1, endogenous SENP6 (mouse) (mouse (endogenous in primary neurons and brain)) (UniProt Q6P7W0); assay: co-IP; endogenous proteins in brain of mice after ischemic stroke, Tat-Nrf2 i.v. 6 h after reperfusion at 5, 10 and 15 mg kg^-1 for 3 consecutive days; the blocked pair
T1 sequence: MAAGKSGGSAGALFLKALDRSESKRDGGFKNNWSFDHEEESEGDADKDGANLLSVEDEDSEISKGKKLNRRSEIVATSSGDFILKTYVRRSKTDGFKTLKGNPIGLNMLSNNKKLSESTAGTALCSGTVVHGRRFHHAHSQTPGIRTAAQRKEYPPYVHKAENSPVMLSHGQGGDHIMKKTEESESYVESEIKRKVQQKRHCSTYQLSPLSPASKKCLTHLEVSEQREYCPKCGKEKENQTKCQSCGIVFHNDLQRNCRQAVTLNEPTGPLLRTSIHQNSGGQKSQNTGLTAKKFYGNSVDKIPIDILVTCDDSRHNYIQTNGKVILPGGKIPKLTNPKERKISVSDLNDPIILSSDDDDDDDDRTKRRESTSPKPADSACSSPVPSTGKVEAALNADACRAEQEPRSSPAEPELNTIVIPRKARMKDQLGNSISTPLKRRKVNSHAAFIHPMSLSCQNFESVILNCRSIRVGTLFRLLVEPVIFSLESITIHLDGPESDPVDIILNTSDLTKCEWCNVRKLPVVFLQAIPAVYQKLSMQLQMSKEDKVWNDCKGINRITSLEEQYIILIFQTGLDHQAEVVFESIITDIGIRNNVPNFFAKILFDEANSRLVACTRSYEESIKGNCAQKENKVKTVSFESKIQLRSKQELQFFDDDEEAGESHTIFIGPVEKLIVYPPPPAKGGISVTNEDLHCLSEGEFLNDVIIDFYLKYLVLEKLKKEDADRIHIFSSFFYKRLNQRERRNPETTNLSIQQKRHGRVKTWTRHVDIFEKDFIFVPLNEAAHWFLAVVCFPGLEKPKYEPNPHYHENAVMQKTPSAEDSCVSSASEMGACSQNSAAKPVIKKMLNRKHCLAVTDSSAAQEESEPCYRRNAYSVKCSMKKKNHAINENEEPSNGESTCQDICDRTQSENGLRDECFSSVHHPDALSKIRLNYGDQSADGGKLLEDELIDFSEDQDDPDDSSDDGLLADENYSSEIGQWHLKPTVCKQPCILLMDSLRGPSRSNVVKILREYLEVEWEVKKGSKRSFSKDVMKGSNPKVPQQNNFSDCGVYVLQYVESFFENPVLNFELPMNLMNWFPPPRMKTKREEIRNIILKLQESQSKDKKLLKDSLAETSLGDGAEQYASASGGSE

[2] = target: T1, endogenous SENP6 (mouse) (mouse (endogenous in primary neurons and brain)); assay: co-IP; endogenous proteins in primary mouse neurons, control or OGD 1 h and reperfusion 24 h; whole lysates and cytoplasmic and nuclear fractions; in some experiments neurons infected with adenoviruses expressing SENP6 or SENP6 shRNA for 48 h
[3] = target: T2, HA‐Nrf2‐WT (nuclear factor erythroid 2‐related factor 2) (human) (UniProt Q16236); assay: co-IP; HEK293T cells (HEK293 as printed for Figure S2C) co-transfected with the tagged constructs for 48 h, in some samples with His-SUMO2 and Flag-Ubc9; lysis in IP buffer at 4 °C, primary antibody overnight, protein A/G agarose 4 h, immunoblot
T2 sequence: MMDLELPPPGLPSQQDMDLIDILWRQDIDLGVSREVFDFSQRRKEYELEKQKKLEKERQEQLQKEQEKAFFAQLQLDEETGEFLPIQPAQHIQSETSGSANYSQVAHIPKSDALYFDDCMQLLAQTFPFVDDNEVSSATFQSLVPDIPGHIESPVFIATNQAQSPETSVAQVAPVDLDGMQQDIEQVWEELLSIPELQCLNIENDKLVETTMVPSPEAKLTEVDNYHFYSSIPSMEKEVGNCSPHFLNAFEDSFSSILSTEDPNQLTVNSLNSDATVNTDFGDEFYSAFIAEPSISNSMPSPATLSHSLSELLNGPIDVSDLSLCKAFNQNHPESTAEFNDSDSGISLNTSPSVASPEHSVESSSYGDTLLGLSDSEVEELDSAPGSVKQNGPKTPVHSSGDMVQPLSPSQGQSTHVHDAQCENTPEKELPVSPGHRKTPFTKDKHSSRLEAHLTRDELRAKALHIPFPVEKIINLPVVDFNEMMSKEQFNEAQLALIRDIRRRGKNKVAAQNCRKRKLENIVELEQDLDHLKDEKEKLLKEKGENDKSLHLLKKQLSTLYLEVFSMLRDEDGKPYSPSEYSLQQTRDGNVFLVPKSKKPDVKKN

[4] = target: T3, Myc‐SENP6 (Sentrin/SUMO‐specific protease 6) (UniProt Q9GZR1); assay: co-IP; HEK293T cells co-transfected with Myc-SENP6 and HA-Nrf2 for 48 h, then treated with Tat-Nrf2 peptide at 5, 10, 15 and 20 µM; the blocked pair
T3 sequence: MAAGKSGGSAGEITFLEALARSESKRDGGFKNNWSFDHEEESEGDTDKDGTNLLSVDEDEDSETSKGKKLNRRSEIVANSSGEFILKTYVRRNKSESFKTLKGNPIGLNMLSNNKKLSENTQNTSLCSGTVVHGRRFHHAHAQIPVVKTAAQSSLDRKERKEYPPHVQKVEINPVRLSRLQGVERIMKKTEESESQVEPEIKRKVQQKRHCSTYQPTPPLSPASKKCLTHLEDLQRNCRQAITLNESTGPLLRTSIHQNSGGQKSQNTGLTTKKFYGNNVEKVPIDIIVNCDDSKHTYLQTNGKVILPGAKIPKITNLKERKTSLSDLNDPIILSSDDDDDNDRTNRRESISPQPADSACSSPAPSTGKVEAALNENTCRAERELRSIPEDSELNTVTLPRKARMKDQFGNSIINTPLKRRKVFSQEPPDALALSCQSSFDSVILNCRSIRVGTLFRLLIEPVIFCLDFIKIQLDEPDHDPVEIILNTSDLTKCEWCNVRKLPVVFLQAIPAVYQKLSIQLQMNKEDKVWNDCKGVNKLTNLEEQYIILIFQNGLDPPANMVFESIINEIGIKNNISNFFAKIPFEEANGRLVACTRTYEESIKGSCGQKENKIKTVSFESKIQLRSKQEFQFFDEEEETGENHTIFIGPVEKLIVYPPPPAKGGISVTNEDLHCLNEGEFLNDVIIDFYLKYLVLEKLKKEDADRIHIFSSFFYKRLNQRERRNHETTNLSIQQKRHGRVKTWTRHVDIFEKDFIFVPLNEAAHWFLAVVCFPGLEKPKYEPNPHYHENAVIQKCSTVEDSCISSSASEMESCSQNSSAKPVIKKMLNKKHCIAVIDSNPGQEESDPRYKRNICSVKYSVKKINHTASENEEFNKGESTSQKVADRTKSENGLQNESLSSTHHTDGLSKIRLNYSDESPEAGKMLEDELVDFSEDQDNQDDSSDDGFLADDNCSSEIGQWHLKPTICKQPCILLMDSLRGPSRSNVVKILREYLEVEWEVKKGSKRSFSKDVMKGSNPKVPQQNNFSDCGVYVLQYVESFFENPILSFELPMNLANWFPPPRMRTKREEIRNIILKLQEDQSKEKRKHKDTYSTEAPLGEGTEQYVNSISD

GFP‐Cul3 (Cullin 3) = GFP‐Cul3 (Cullin 3) (UniProt Q13618); assay: co-IP; HEK293T cells (HEK293 as printed for Figure S2C) co-transfected with the tagged constructs for 48 h, in some samples with His-SUMO2 and Flag-Ubc9; lysis in IP buffer at 4 °C, primary antibody overnight, protein A/G agarose 4 h, immunoblot
[5] = target: T3, Myc‐SENP6 (Sentrin/SUMO‐specific protease 6); assay: as above

binding [1]: binds
binding [2]: binds
B1: endogenous Nrf2 (mouse) (protein, UniProt Q60795 1-597)
chain: MMDLELPPPGLQSQQDMDLIDILWRQDIDLGVSREVFDFSQRQKDYELEKQKKLEKERQEQLQKEQEKAFFAQFQLDEETGEFLPIQPAQHIQTDTSGSASYSQVAHIPKQDALYFEDCMQLLAETFPFVDDHESLALDIPSHAESSVFTAPHQAQSLNSSLEAAMTDLSSIEQDMEQVWQELFSIPELQCLNTENKQLADTTAVPSPEATLTEMDSNYHFYSSISSLEKEVGNCGPHFLHGFEDSFSSILSTDDASQLTSLDSNPTLNTDFGDEFYSAFIAEPSDGGSMPSSAAISQSLSELLDGTIEGCDLSLCKAFNPKHAEGTMEFNDSDSGISLNTSPSRASPEHSVESSIYGDPPPGFSDSEMEELDSAPGSVKQNGPKAQPAHSPGDTVQPLSPAQGHSAPMRESQCENTTKKEVPVSPGHQKAPFTKDKHSSRLEAHLTRDELRAKALHIPFPVEKIINLPVDDFNEMMSKEQFNEAQLALIRDIRRRGKNKVAAQNCRKRKLENIVELEQDLGHLKDEREKLLREKGENDRNLHLLKRRLSTLYLEVFSMLRDEDGKPYSPSEYSLQQTRDGNVFLVPKSKKPDTKKN

binding [3]: binds
B2: Myc‐SENP6 (Sentrin/SUMO‐specific protease 6) (enzyme, UniProt Q9GZR1 1-1112)
chain: T3 sequence

binding [4]: binds
binding (GFP‐Cul3 (Cullin 3)): binds
binding [5]: binds
B3: HA‐Nrf2‐WT (nuclear factor erythroid 2‐related factor 2) (protein, UniProt Q16236 1-605)
chain: T2 sequence

binding [5]: no binding
B4: HA‐Nrf2‐2KR (protein, UniProt Q16236 1-605)
chain: T2 sequence with K110R, K533R

binding [5]: binds
B5: HA‐Nrf2‐K110R (protein, UniProt Q16236 1-605)
chain: T2 sequence with K110R

binding (GFP‐Cul3 (Cullin 3)): binds
binding [5]: no binding
B6: HA‐Nrf2‐K533R (protein, UniProt Q16236 1-605)
chain: T2 sequence with K533R
